Among all 45,000 compounds or so, about 200 (0.44%) were called active. Not shown: some 7% with an inconclusive outcome. Calls follow the shape of the dose curve; as a rule, active = well fitted activation curve with a large enough effect; inconclusive = small, poorly fitted or top-dose-only effect; inactive = no such curve, though single readings can be large or run the other way. The list shows a part of the results.
Assay: qHTS of TDP-43 Inhibitors: NCGC Sytravon Library Screen; also: 0% is about no effect; nearly all actives have a fitted effect of over 55% in size
Settings: yeast TDP-43 toxicity rescue, BacTiter-Glo growth, 24 h; series mostly up to 46.1 µM; growth rescue (activation): at the top concentration
How it was run: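 TDP-43-expressing yeast, pregrown in raffinose, seeded at OD600 0.02 in galactose medium with compound for 24 hr at 30 deg C. Growth read by BacTiter-Glo luminescence, so rescue of toxicity appears as activation.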

Structure (SMILES)	growth rescue (activation)
O=C(Nc1nccs1)c1ccc(S(=O)(=O)N2CCOCC2)cc1	inactive: 16.3%
CCN(CC)CCN1C(=O)C2C(C(=O)Nc3cccc(C)c3)C3C=CC2(O3)C1C(=O)NC1CCCC(C)C1C (configuration not stated)	inactive: 8.53%
CCCS(=O)(=O)NC(=O)C1(C)CCCN(C(=O)c2c(OC)cccc2OC)C1 (configuration not stated)	inactive: -5.68%
Cc1cc(SCC(=O)Nc2ccc(O)cc2)n2nc(C)c(-c3ccccc3)c2n1	inactive: 37.4%
O=C(CSc1nc(-c2ccccc2)cc(=O)[nH]1)NCc1ccc2c(c1)OCO2	inactive: 14.2%
CC12COC3(C(=O)Nc4ccc5ccccc5c4)CC1CCC32C (configuration not stated)	inactive: 17.6%
NC(CCc1ccccc1)c1csc(Nc2ccc(C(=O)NCCCO)cn2)n1 (configuration not stated)	inactive: 5.9%
COCCNC(=O)COc1cccc2c1OC(C)(C)C2	inactive: 4.4%
CCOC(=O)N=Nc1c(O)n(C)c2ccccc12	inactive: 20.9%
O=C(c1ccccc1Cl)N1CCN(S(=O)(=O)c2cccs2)CC1	inactive: 25.9%
Cc1csc(NC(=O)c2cnc3ccccc3n2)n1	inactive: 16.9%
COc1ccc(C)cc1NC(=O)CN(c1ccc(C)cc1)S(C)(=O)=O	inactive: 9.47%
CN(C)c1ccc(NC(=O)Nc2nc(C(N)C3CCCCC3)cs2)cc1 (configuration not stated)	inactive: 1.69%
CCOC(=O)c1cc(-c2ccccc2)sc1N	inactive: 44.7%
CCC(=O)NC(=S)Nc1ccc(NC(=O)c2cccc([N+](=O)[O-])c2C)cc1	inactive: 9.44%
Cc1cc(C)c(NS(=O)(=O)c2ccc(NC(=O)c3cccs3)cc2)c(C)c1	inactive: 18.8%
COc1ccc(-c2cnc(SCC(=O)Nc3ccc4c(c3)OCO4)n2Cc2ccco2)cc1	inactive: 29.4%
CCCn1c(SCC(=O)N(C)C2CCS(=O)(=O)C2)nc2sc3c(c2c1=O)CCC3 (configuration not stated)	inactive: -5.58%
CN(C)S(=O)(=O)c1cccc(NC(=O)CSc2ncnc3ccccc23)c1	inactive: -15.7%
CCn1ncc(CN2CCN(Cc3ccc(OC)c(C)c3C)C(CCO)C2)c1C (configuration not stated)	inactive: 6.58%
COC(=O)c1ccc(C(=O)OC)c(NC(=O)CSCc2ccc(Cl)cc2)c1	inactive: 6.53%
CCC1CCCCN1C(=O)CSc1nc(C)cc(C)n1 (configuration not stated)	inactive: 0.665%

Structure (SMILES)	growth rescue (activation)
COc1ccc(C2CCCN2C(=S)Nc2cccc(C)c2)cc1OC (configuration not stated)	inactive: 23.3%
Cn1c(SCC(=O)NC2CCCC2)nnc1-c1cccs1	inactive: -3.85%
COc1ccc(OC)c(CCNC(=O)CCCc2nnc3n(C)c(=O)c4sccc4n23)c1	inactive: 11.5%
CC1CC(=O)Nc2ccc([N+](=O)[O-])cc2N1C (configuration not stated)	inactive: 0.707%
O=C(COC(=O)c1ccc(Cl)cc1)NCC1CCCCC1	inactive: -26.6%
CSc1sc(C)cc1/C=N/O	inactive: 2.16%
CCOC(=O)c1[nH]cnc1C(=O)Nc1cccc(Cl)c1	inactive: 9.55%
O=C(N/N=C/c1cc2c(cc1[N+](=O)[O-])OCO2)c1cccnc1	inactive: -17.1%
COc1cc(NC(=O)C2(C)CCCN2C)cc(OC)c1OC (configuration not stated)	inactive: -2.41%
Cc1ccc(S(=O)(=O)N(C)c2c(C)ccc(S(=O)(=O)N3CCN(C=O)CC3)c2C)cc1	inactive: 18.3%
Cc1[nH]nc2c1C(C(C)C)C(C#N)=C(N)O2 (configuration not stated)	inactive: -7.19%
O=C(OCc1cc([N+](=O)[O-])cc2c1OCOC2)c1ccccn1	inactive: -0.592%
Cc1ccc(S(=O)(=O)Nc2cccc(Cl)c2)cc1NC(=O)c1cccnc1	inactive: 2.93%
O=C(CCl)N1CCN(C(=O)C2COc3ccccc3O2)CC1 (configuration not stated)	inactive: 5%
Cc1cccc(-n2c(N)c(-c3nc4ccccc4n3C)c3nc4ccccc4nc32)c1	inactive: 5.16%
Cc1ccc(NC(=O)c2cc(-c3ccc4c(c3)OCO4)on2)cc1	inactive: 10.6%
O=S(=O)(NCCc1ccccc1)c1ccc(-n2cnnn2)cc1	inactive: -6.11%
COc1cc(NC(=O)c2cc(C)nc3ccccc23)cc(OC)c1OC	inactive: 6.67%
C/C(=N\NC(=O)Cn1nc(C)c([N+](=O)[O-])c1C)c1ccc(Cl)s1	inactive: 5.27%
Cc1cc(C(=O)N/N=C/c2c(C)nn(-c3ccccc3)c2C)n[nH]1	inactive: 16.5%
COC(=O)CN(c1cc(Cl)ccc1OC)S(=O)(=O)c1ccc(C)cc1	inactive: 12.8%
O=C(Nc1nnc(CCS(=O)(=O)c2ccc3ccccc3c2)s1)c1ccc([N+](=O)[O-])cc1	inactive: -13%

Structure (SMILES)	growth rescue (activation)
COc1ccc(N(CC(=O)N/N=C/c2ccccc2OC)S(=O)(=O)c2ccccc2)cc1	inactive: 1.93%
Cc1ccc(C(=O)N/C(=C/c2ccccc2)C(=O)NC(Cc2ccccc2)C(=O)O)cc1 (configuration not stated)	inactive: 6.43%
COc1ccc(CCNc2nc(C)c(C(C)=O)s2)cc1OC	inactive: 17.5%
Cc1cc([N+](=O)[O-])nn1CC(=O)N(C)C1CCCCC1	inactive: 2.11%
COc1ccc(CNC(=O)CN2CCN(c3cccc(C)c3C)CC2)cc1	inactive: 8.53%
CC1(C(=O)NS(=O)(=O)c2ccc(C#N)cc2)CCN1C(=O)C1(c2ccccc2)CCCC1 (configuration not stated)	inactive: 3.31%
N#Cc1ccccc1NC(=O)COC(=O)CN1C(=O)C2CCCCC2C1=O (configuration not stated)	inactive: -8.58%
N#Cc1ccccc1NC(=O)Nc1cccs1	inactive: 14.6%
Cc1ccc(OCCn2cc(C(=O)O)c3ccccc32)cc1	inactive: -18.8%
CC(C)CN(CC(C)C)C(=O)Nc1ccccc1F	inactive: 2.14%
O=C(NC(Cc1ccccc1)C(=O)O)/C(=C/c1cccc([N+](=O)[O-])c1)NC(=O)c1ccco1 (configuration not stated)	inactive: -0.768%
O=[N+]([O-])c1ncccc1OCc1ccc(Br)cc1F	inactive: 10.2%
Cc1nc2c(cc1C(=O)N/N=C/c1ccc([N+](=O)[O-])cc1)c(=O)n(C)c(=O)n2C	inactive: 1.99%
COc1c(C)cc(C(=O)C2CCCN(C(=O)c3cc(C)nc(C)n3)C2)cc1C (configuration not stated)	inactive: -6.18%
O=C(Nc1sc2c(c1C(=O)O)CCC2)c1cccc(Cl)c1	inactive: -0.484%
CCN(CC)S(=O)(=O)c1cc(C(=O)OCC(=O)Nc2ccc(-c3nc4ccc(C)cc4s3)cc2)ccc1F	inactive: 16.7%
CNc1ncnc2c1ncn2[C@H]1CN(Cc2cccnc2)C[C@@H](CO)O1	inactive: -0.757%
O=C(COC(=O)/C=C/c1ccc(F)cc1)NC1CCCC1	inactive: 18.4%
CCOc1ccc(S(=O)(=O)n2cnc3ccccc32)cc1	inactive: 0.191%
CCc1nn(CC(=O)NCc2cccc(OC)c2OC)c(=O)c2cc3occc3n12	inactive: -0.408%
CCOC(=O)C1(C)CCCN(C(=O)c2ccc(OC)cc2OC)C1 (configuration not stated)	inactive: -0.157%
O=C(O)c1ccccc1-c1ccccc1C(=O)Nc1cccc(-c2nc3ccccc3o2)c1	inactive: -8.72%

Structure (SMILES)	growth rescue (activation)
COC(=O)c1c(NC(NC(=O)C(C)C)C(Cl)(Cl)Cl)sc2c1CCC2 (configuration not stated)	inactive: -22.5%
CCCCC(=O)N(C)c1c(C)nc2ccc(C(=O)Nc3cccc(OC)c3)cn12	inactive: -1.86%
CN(c1ccc(C(=O)N2CCN(c3ccccc3F)CC2)cc1)S(=O)(=O)c1ccccc1	inactive: 28.5%
COc1ccc(-n2c(SCC(=O)NCC3CCCO3)nc3c([nH]c4ccccc43)c2=O)cc1 (configuration not stated)	inactive: -3.23%
Cc1cccn2c(=O)c3cc(C(=O)N4COCC4(C)C)n(Cc4ccccc4)c3nc12	inactive: -3.69%
CCOC(=O)c1sc(NC(=O)CSc2nncn2C)nc1C	inactive: 12.5%
N#CCSc1nc(-c2ccccc2)c2cc(Cl)ccc2n1	inactive: 3.94%
Fc1ccccc1-c1nc(NC2CCCC2)c2ccccc2n1	inactive: -1.57%
COc1ccc(C(OC(=O)c2ccco2)C(=O)NC2CCCC2)cc1OC (configuration not stated)	inactive: -0.0762%
COC(=O)c1ccc(OC)c(CN2CCCN(Cc3cc(C)ccc3C)S2(=O)=O)c1	inactive: 6.33%
C=C1N(c2cccc(Cl)c2)C(=O)OC1(C)C	inactive: 6.26%
C/C(=N\OCc1ccc(C#N)cc1)c1cc2ccccc2o1	inactive: 13.1%
CC(=O)Nc1ccc(NC(=O)COc2ccc(S(=O)(=O)N3CCCC3)cc2)cc1	inactive: 7.05%
COc1ccc(/C=C2/C(=O)C(C)(C(C)C)CCC2C)cc1 (configuration not stated)	inactive: 2.38%
CC(C)n1cc(/C=N/Nc2ccc(C(=O)O)cc2)c2ccccc21	inactive: 19.6%
COc1ccc(NC(=S)N2CCCCC2c2cccnc2)cc1 (configuration not stated)	inactive: 6.7%
COc1ccc(Cl)cc1N(C(C)C(=O)NC1CCCC1)S(C)(=O)=O (configuration not stated)	inactive: 1.97%
CCN(CC)C(=S)SCC(=O)c1c(C)[nH]c2ccccc12	inactive: -1.71%
COCCNC(=O)C(OC(=O)c1nsc(Cl)c1Cl)C(C)C (configuration not stated)	inactive: 1.41%
CN(C)CCCNC(=O)/C(=C\C=C\c1ccccc1)NC(=O)c1ccc([N+](=O)[O-])cc1	inactive: -2.87%
O=C(CSc1ccc2ccccc2c1Br)Nc1cccc(S(=O)(=O)NC2=NCCCCC2)c1	inactive: 3.87%
Cc1ccc(C)c(NC(=O)C(OC(=O)c2ccc(CO)cc2)c2ccccc2)c1 (configuration not stated)	inactive: -10.5%

Structure (SMILES)	growth rescue (activation)
CCCSc1oc(-c2ccco2)nc1S(=O)(=O)c1ccc(C)cc1	inactive: -0.0984%
CC(C)Oc1ccc(C(=O)NCCNC(=O)c2ccco2)cc1	inactive: 15%
Cc1ccc(NC(=O)N2CCC(NC(=O)c3cccc(C)c3)CC2)cc1	inactive: 5.3%
CCN(CC)CCN1C(=O)C(O)=C(C(=O)c2cc3cccc(OC)c3o2)C1c1cccs1 (configuration not stated)	inactive: -1.03%
CCCC(=O)Nc1ccc(-c2csc(NNC(C)=O)n2)cc1	inactive: -17.8%
Cc1ccc(S(=O)(=O)N2c3ccc(S(N)(=O)=O)cc3CC2C)cc1 (configuration not stated)	inactive: -2.08%
O=[N+]([O-])c1cc([N+](=O)[O-])c2cc3ccccc3nc2c1	inactive: -19.7%
CCCc1nc2cc(Cl)c([N+](=O)[O-])cc2o1	inactive: 10.4%
CC(=O)Nc1ccc(S(=O)(=O)Nc2ccc(S(=O)(=O)Nc3nc(C)cc(C)n3)cc2)cc1	inactive: -4.41%
Cc1ccc(C(=O)N(C)Cc2ccccc2)cc1S(=O)(=O)N1CCOCC1	inactive: 13.6%
COc1ccc2c(c1OC)C(=O)OC2Nc1nc(-c2ccc([N+](=O)[O-])cc2)cs1 (configuration not stated)	inactive: 9.46%
CC(C)(C)NC(=O)NC(=O)CN1CCN(Cc2ccccc2)CC1	inactive: -5.93%
OC(c1cccc(Cl)c1)c1ncc(-c2ccc3ccccc3c2)[nH]1 (configuration not stated)	inactive: 5.68%
Cc1ccc(S(=O)(=O)Nc2ccc(O)c(Sc3ncn[nH]3)c2)cc1	inactive: 11.8%
Cc1cc(OCc2cc(C(=O)NCc3csc(C(C)C)n3)no2)cc(C)c1Cl	inactive: 19.7%
CCc1sc(C(=O)N2CCc3ccccc32)cc1C	inactive: -9%
Cc1ccc(C(=O)NCCNC(=O)c2ccco2)cn1	inactive: -5.08%
CC1(C(=O)NS(=O)(=O)c2cccc(Cl)c2)CCN1C(=O)Cc1cccs1 (configuration not stated)	inactive: 0.583%
O=C(COC(=O)CNC(=O)c1ccccc1)Nc1ccccc1Cl	inactive: -6.41%
